These results are taken from ChEMBL document CHEMBL1201862, “PubChem BioAssay data set” (2004).

Each structure is given as a SMILES string.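 96-well plates; 48 h exposure; 5 concentrations. Endpoints by linear interpolation between flanking doses. Not reached: highest tested concentration assigned. GI50 is the concentration that inhibits growth by half.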 Active and inactive are the calls of the source. Cut-off read from the data, not from the text of the source: active = GI50 up to about 1.1 µM and inactive = higher.

The subject of the assay is NCI-H322M. Description: NCI anticancer screen, dose series, 48 h.
For the compound `O=NN(CCF)C(=O)NC1CCSCC1`, the GI50 is inactive: > 100 µM.

In the case of `O=C(C(=O)c1cc(-c2ccccc2)nc2ccc3ccccc3c12)c1ccccc1`, the GI50 is inactive: 54.2 µM. Regarding `CCOC(=S)SCC(=O)O`, the GI50 is inactive: > 100 µM. Take `N#CC1(Cc2ccccc2Cl)c2ccccc2C=CN1C(=O)c1ccccc1` (stereo not drawn): the GI50 was inactive: > 100 µM. The figure for `Cc1cccc(C)c1NC(=O)C1C(=O)N(c2c(C)cccc2C)C(=O)/C1=N\N` (stereo not drawn) is inactive: > 100 µM; for `CCC1C(=O)OCc2c1cc1n(c2=O)CCC12OCCO2` (stereo not drawn) it is inactive: > 100 µM; for `CC(=N\N=C\c1ccccn1)/C(C)=N/N=C(C)/C(C)=N/N=C(C)/C(C)=N/N=C/c1ccccn1` it is inactive: > 100 µM. `CC(C)C(C)C(O)C(O)C(C)C1CCC2C3COC(=O)C4CC(O)C(O)CC4(C)C3CCC12C` (stereo not drawn): the GI50 was inactive: > 100 µM. Turning to `COc1cc2nc(-c3cccs3)nc(N3CCN(c4ccccc4C(F)(F)F)CC3)c2cc1OC`, the GI50 was inactive: > 100 µM. In the case of `COCOC1/C=C/CCCCC(=O)C(C)C#CC1` (stereo not drawn), the GI50 is inactive: 12.2 µM. As to `c1ccc2c(c1)CCc1c-2n(CCN2CCCCC2)c2ccccc12`, the GI50 was inactive: 15.2 µM.

As for `Nc1ncn(C/C=C/c2ccccc2)c2ncnc1-2`, the GI50 was inactive: > 100 µM. `CC(CCc1ccc2c(c1)c(N)c1ccc(N)cc1[n+]2[O-])CC(C)(C)C` (stereo not drawn): the GI50 is inactive: 1.51 µM. Regarding `CC(CC[C@@]1(O)OC2C[C@H]3[C@@H]4CC[C@H]5CC(OC6OC(CO)C(OC7OC(CO)C(O)C(OC8OCC(O)C(O)C8O)C7OC7OC(CO)C(O)C(O)C7O)C(O)C6O)[C@H](O)CC5(C)[C@H]4CCC3(C)C2[C@@H]1C)COC1OC(CO)C(O)C(O)C1O` (stereo partly drawn), the GI50 is inactive: 5.28 µM.

As for `O=C(O)c1cc(/N=C/c2ccccc2O)cc(C(=O)O)c1`, the GI50 is inactive: > 100 µM. The same measure for `CCOC(=O)NC(OCCN(C)C)(C(F)(F)F)C(F)(F)F`: inactive: > 100 µM; for `Cc1nc2c(C)c3c([nH]c4ccc(Cl)cc43)c(C)c2c(O)c1C`: inactive: 25.3 µM; for `CCN(CC)c1ccc2c(c1)N=C1N=CC=CN1C2(c1ccc(N(C)C)cc1)c1ccc(N(C)C)cc1`: inactive: 10.1 µM. Take `O=C(CSc1ncccn1)N/N=C/c1ccccc1OCc1ccccc1`: the GI50 is inactive: 45.3 µM. Turning to `CC1CC(C)C2=NOS3=C2C1=NO3` (stereo not drawn), the GI50 is inactive: > 100 µM.

For `CCOC(=O)[C@@H]1C2C(=C[C@H]3[C@H]1C(=O)N1CCCC[C@H]31)CCCN2C(=O)OCc1ccccc1` (stereo partly drawn), the GI50 was inactive: 53.6 µM. On to `C=CCN1C(=O)C(=O)N(CC=C)C(=O)C1=O`, for which the GI50 is inactive: > 100 µM. `CC[N+]1(C)CCC(O)(c2ccc(C)cc2)C(C(=O)c2ccc(C)cc2)C1` (stereo not drawn): the GI50 is inactive: > 100 µM. For `COc1cc(O)c2c(=O)c(OC)c(-c3ccc4c(c3)OCO4)oc2c1`, the GI50 is inactive: > 100 µM. Take `O=[N+]([O-])c1ccc2[nH]c(=S)[nH]c(=S)c2c1`: the GI50 is inactive: > 100 µM. Take `O=P(O)(O)CN1CCNCCN(CP(=O)(O)O)CC1`: the GI50 is inactive: > 40.5 µM. For `COc1ccc(C(=O)C(C(=O)CCC(=O)Nc2cccc(Cl)c2)c2ccc(OC)cc2)cc1` (stereo not drawn), the GI50 was inactive: > 100 µM. Take `COC(=O)C1=C(O)C(C(=O)OC)[C@]2(O)[C@@H](C(=O)OC)[C@H]1C[C@@H](c1ccccc1)[C@@H]2C(=O)OC` (stereo partly drawn): the GI50 is inactive: 16.6 µM. Consider `Nc1ccccc1-n1c2c(c3ccccc3c1=O)C(=O)c1ccccc1-2`, for which the GI50 was inactive: 35.3 µM. For `Cn1c(=O)nc2n(-c3ccc(Cl)cc3)c3ccc(Cl)cc3nc-2c1=O`, the GI50 is inactive: 15.3 µM. In the case of `CC1=CC(=O)N(c2c(C)cccc2Cl)C(C)N1` (stereo not drawn), the GI50 is inactive: > 100 µM. On to `C/C(CC(=O)Nc1cccc([N+](=O)[O-])c1)=N/NC(N)=S`, for which the GI50 was inactive: > 100 µM. `C/C=C(\CCOS(=O)(=O)c1ccc(C)cc1)[Si](C)(C)C`: the GI50 is inactive: > 100 µM. The figure for `Cc1ccc(NC(=O)CC/C(CC(=O)C(C)(C)C)=N/NC(=O)C(N)=O)cc1C` is inactive: > 100 µM; for `COc1cc(N(C)C)c(OC)cc1/C=C\c1ccnc2ccccc12` it is active: 0.889 µM. The same measure for `O=C1OS2(OC(=O)c3cccc4cccc2c34)c2ccccc21` (stereo not drawn): inactive: > 100 µM. As for `CN1CCN(C(=O)CCNC(=O)Cc2ccc(C(=O)c3ccccc3)cc2)CC1`, the GI50 was inactive: > 100 µM. On to `CCOC(=O)C(C(=O)OCC)c1cc(-c2cc3ccccc3o2)oc(=O)c1C#N`, for which the GI50 was inactive: 28.1 µM. The figure for `O=C(c1ccccc1)C(c1ccccc1)C1(O)C(=O)Nc2c(Cl)cc(Cl)cc21` (stereo not drawn) is inactive: 18.9 µM. Take `CCc1c(C)c(C#N)c(=S)n(C2OC(COC(C)=O)C(OC(C)=O)C(OC(C)=O)C2OC(C)=O)c1C` (stereo not drawn): the GI50 was inactive: > 100 µM. In the case of `COC(=O)[C@@]12CCCC(=O)[C@@H]1[C@H]1CCCC[C@H]12`, the GI50 is inactive: > 100 µM. For `COc1cc(Oc2c(O)c(C)c(OC)c(C(C)=O)c2O)c(C(C)=O)c(O)c1C`, the GI50 was inactive: 64.9 µM. On to `CC(=O)N(C(C)=O)c1cc2c3c(c1)CCCN3CCC2`, for which the GI50 was inactive: > 10 µM. In the case of `c1ccc(-c2ccc(-c3ccc(C4=NCCN4)cc3)o2)cc1`, the GI50 was inactive: 2.69 µM. Turning to `C=CCN1C(=O)CNC1=S`, the GI50 is inactive: > 100 µM. In the case of `CC1(C)NC(C)(C)/C(=N\O)C(=NO)/C1=N/O`, the GI50 was inactive: > 100 µM. Regarding `Cc1c2c(ccc3ccccc32)c[n+]2ccccc12`, the GI50 is inactive: 10.1 µM.

On to `Cn1c(=O)nc2n(-c3ccc(Cl)cc3)c3cc(Cl)ccc3nc-2c1=O`, for which the GI50 was inactive: 10.4 µM.

`CC(C)=C/C=C1/CS(=O)(=O)C=C1C`: the GI50 was inactive: > 100 µM. `O=C1c2c(O)cccc2C(C(=O)CCCCC(=O)C2c3cccc(O)c3C(=O)c3c(O)cccc32)c2cccc(O)c21`: the GI50 was active: 0.885 µM.

On to `OCSc1nn(CO)c(=S)s1`, for which the GI50 is inactive: 41.7 µM. `Cc1nc2c3c(ncn2n1)Oc1c(c(-c2ccccc2)nn1-c1ccccc1)C3c1ccc(Cl)cc1` (stereo not drawn): the GI50 was inactive: > 100 µM.

For `C#CCCCCC#Cc1ccccc1C(=O)OC`, the GI50 was inactive: > 100 µM. In the case of `COC(=O)CCC(=O)CC(=O)C(=O)Nc1ccc(F)cc1`, the GI50 was inactive: > 100 µM.

On to `CC(C)=CCCC(C)CCOS(=O)C(F)(F)F` (stereo not drawn), for which the GI50 is inactive: 26.8 µM. Turning to `N#CC1(C#N)C=CC(=C2OCC3CCCN23)C=C1` (stereo not drawn), the GI50 was inactive: > 100 µM.

As to `COC(=O)C(=O)C(C(C)=O)C(=O)C(=O)Nc1ccc(C)cc1C` (stereo not drawn), the GI50 was inactive: > 100 µM. With `CC(=O)NC1=C(NCCN(C)C)C(=O)c2ccccc2C1=O`, the GI50 is inactive: 17.7 µM. The same measure for `COc1ccc(C(=O)OC2C=COC(C)C2OC(=O)c2ccc(OC)cc2)cc1` (stereo not drawn): inactive: 66.8 µM; for `CCN1CC2(COC)C(O)CC(OC)C34C5CC6(O)C(OC)C=C(C5C6OC(=O)c5ccc(OC)c(OC)c5)C(C(OC)C23)C14` (stereo not drawn): inactive: > 7.5 µM. On to `O=C1Nc2cccc3cc(NCC(O)CCl)cc1c23` (stereo not drawn), for which the GI50 was inactive: 83.4 µM. For `CCOC(=O)N1C/C(=C\c2ccc(N(C)C)cc2)C(=O)/C(=C/c2ccc(N(C)C)cc2)C1`, the GI50 was inactive: > 100 µM. In the case of `CN(C)CC1CCCCCC(Br)C1=O` (stereo not drawn), the GI50 is inactive: 53.6 µM.

For `Cc1ccc(Cc2n[nH]c(=O)n2-c2ccccc2)cc1`, the GI50 was inactive: > 100 µM. As for `CCC#CCCCCCCCCC(F)C(=O)O` (stereo not drawn), the GI50 is inactive: > 100 µM.

In the case of `CSc1ccc(C2OC(=O)c3ccccc32)c2ccccc12` (stereo not drawn), the GI50 was inactive: > 100 µM.

Take `CC(=O)OCC1OC(N2C(=O)CC(N)=Nc3ccccc32)C(OC(C)=O)C(OC(C)=O)C1OC(C)=O` (stereo not drawn): the GI50 is inactive: 75.7 µM. The figure for `O=C1NC(=O)/C(=C/c2ccc(S(=O)(=O)N/N=C/c3ccc(Cl)cc3)cc2)N1` is inactive: > 100 µM; for `O=[N+]([O-])c1ccc(-c2noc(-c3ccccc3)c2C2=NCCN2)cc1` it is inactive: > 100 µM; for `COC1(OC)CC(CO)(CNc2cc(Cl)nc(N)n2)C1` it is inactive: > 100 µM. As to `CC(C)/C(Cl)=N/OC(=O)Nc1ccc(Br)cc1`, the GI50 is inactive: 14.8 µM. With `CC1=NN(c2cccc(Cl)c2)C2(C1=C/C=C/c1ccccc1)C(Cl)C(=O)N2c1nc2ccccc2s1` (stereo not drawn), the GI50 was inactive: 37.2 µM. As for `Cc1ccc(O)c(Cc2nc3ccccc3nc2-c2cccc(Br)c2)c1`, the GI50 is inactive: > 100 µM.

Consider `CCOC(=O)/C(=C/c1ccccc1Br)P(=O)(OCC)OCC`, for which the GI50 was inactive: 3.52 µM. The figure for `Cc1nc2ccccc2c(=O)n1CC(=O)O` is inactive: > 100 µM; for `C[C@]12CCC3[C@@H](CC[C@@H]4c5nonc5CC[C@]34C)C1CCC2=O` (stereo partly drawn) it is inactive: 32.1 µM. The same measure for `CC(C)(Oc1ccc(Cl)cc1)C(=O)N(C(=O)N1CCC(c2ccccc2)CC1)c1ccccc1`: inactive: > 100 µM; for `Cc1ccc([N+](=O)[O-])cc1S(=O)(=O)Nc1ccc(C(=O)/C=C/c2cccs2)cc1`: inactive: 22.5 µM; for `Cc1cc(C)c(O)c(CN2CCN(C(C)C)CCN(C(C)C)CC2)c1`: inactive: 41.8 µM. Turning to `CC(C)(C)OC(=O)NCCc1cccc2c1oc1c(CCC(=O)O)cccc12`, the GI50 was inactive: > 100 µM. As to `CC1C=C(CCCCCCCCCCCC[C@@H](O)[C@@H]2CC[C@@H]([C@@H]3CC[C@@H](C(O)CCCCCCCCCCCCC4=C[C@H](C)OC4=O)O3)O2)C(=O)O1` (stereo partly drawn), the GI50 is inactive: > 75.9 µM.

`COC1C2C=CC(C2)[C@H]1[N+](=O)[O-]` (stereo partly drawn): the GI50 was inactive: > 100 µM. For the compound `O=C(O)CN(c1ccccc1)S(=O)(=O)c1ccc([N+](=O)[O-])cc1`, the GI50 was inactive: > 100 µM.
